Test results from the supplement of paper PMC4604168 (melanoma cell lines).
The other results are listed elsewhere or left out. Many values rest on one well or one pass, so single values are uncertain.

These molecules were tested on WM3619 (assay: cell count relative to DMSO control; melanoma cells; higher = more viable cells). Details: library dose: low library concentration; 72 h.
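Also: cell number obtained by counting DAPI-stained nuclei in high-throughput microscope images with image analysis software, screen run in 1,536-well plates.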

| Structure (SMILES) | cell count |
| --- | --- |
| CO[C@H]1C[C@@H]2CC[C@@H](C)[C@@](O)(O2)C(=O)C(=O)N2CCCC[C@H]2C(=O)O[C@H]([C@H](C)C[C@@H]2CC[C@@H](OCCO)[C@H](OC)C2)CC(=O)[C@H](C)/C=C(\C)[C@@H](O)[C@@H](OC)C(=O)[C@H](C)C[C@H](C)/C=C/C=C/C=C/1C [everolimus] + C=CCNC1=C2C[C@@H](C)C[C@H](OC)[C@H](O)[C@@H](C)/C=C(\C)[C@H](OC(N)=O)[C@@H](OC)/C=C\C=C(/C)C(=O)NC(=CC1=O)C2=O [Tanespimycin] (first compound 0.02 µM, partner dose 0.002 µM) | 78.1% |
| CC(=O)O[C@@]12CO[C@@H]1C[C@H](O)[C@@]1(C)C(=O)[C@H](O)C3=C(C)[C@@H](OC(=O)[C@H](O)[C@@H](NC(=O)OC(C)(C)C)c4ccccc4)C[C@@](O)([C@@H](OC(=O)c4ccccc4)[C@H]21)C3(C)C [Docetaxel] + Cc1ccc(NC(=O)c2cccc(N(C)C)c2)cc1NC(=O)c1ccc(O)cc1 [ZM336372] (first compound 0.0001 µM, partner dose 2 µM) | 56.4% |
| CC(=O)O[C@@]12CO[C@@H]1C[C@H](O)[C@@]1(C)C(=O)[C@H](O)C3=C(C)[C@@H](OC(=O)[C@H](O)[C@@H](NC(=O)OC(C)(C)C)c4ccccc4)C[C@@](O)([C@@H](OC(=O)c4ccccc4)[C@H]21)C3(C)C [Docetaxel] + O=C1NC(=O)/C(=C/c2ccc(-c3ccc(F)cc3O)o2)S1 [AS252424] (first compound 0.0001 µM, partner dose 1 µM) | 68% |
